Read counts are not given, so values of variants with three or more changes are uncertain.
B1: LINE1-mini (parent)
chain: GGCAGAGCUCAACACAGCGUGGCAAAGUGGCUGUGGCUAGACUGCC

Variants of: B1
Test: self-cleavage, relative activity (ratio to wild type); higher = more cleavage; in vitro, sequencing; the parent is a self-cleaving ribozyme

Row | Variant | self-cleavage
1 | C18A G35C C46G | 0.04
2 | C8A G21A C46G | 0.38
3 | A6U A12C G22C | 0.02
4 | C3U C15A G19A A26U U28G U32G G33U | 0.05
5 | C15U U34G C45G | 0.04
6 | G5U A11C G21A U28C | 0.01
7 | C37G A39U A41G | 0.03
8 | C3G G21A C31A A41C | 0.04
9 | A25U U28C A41U U43A | 0.03
10 | C3G C31A U34C C42G C46A | 0.13
11 | C10G U34C C42U | 0.03
12 | A11C G22C A24G | 0.07
13 | G5U G7A G21U C23A | 0.54
14 | A6C C23U G30A | 0.8
15 | C10G G27U U38G | 0.04
16 | C8A G21C G22U | 0.08
17 | C13G A26C C45G | 0.03
18 | G1C G22A G30U | 0.2
19 | G2C A6G G21A | 0.21
20 | U9C G21A A25U | 0.01
21 | A16G G17A A24U U28G | 0.02
22 | G19C U28A C42U G44U C45U | 0.02
23 | G1U A6G G19A U43A C45U | 0.04
24 | G5A C15A G36A | 0.03

Row | Variant | self-cleavage
25 | A4U U9A A11U C37A | 0.03
26 | G5C U20C C46G | 0.04
27 | C8G A14U A25C A41G | 0.26
28 | C10A A24G G30C G35A | 0
29 | A11G G35U A39U | 0.04
30 | G5U A14C C18G | 0.01
31 | C8A U20C A24C G27U | 0.11
32 | C31U G36U A39U | 0.07
33 | G1C A6G U32G U43C | 0
34 | G7A A16C G21C U32C C42U | 0.03
35 | G2A A16C G27U U34A | 0.05
36 | G1U G2U A6C G7C C18A U28C C42U | 0
37 | A6G C10G A12U C13G G36U | 0.02
38 | C8G A12G C23A | 0
39 | C15U U20C A41C | 0.13
40 | C10A A39U G40C | 0.01
41 | G5C G7A C31U | 0.06
42 | A14G A16C G27U C45A | 0.02
43 | A16U C18U C31U C42A | 0.03
44 | G7U G27C C45G | 0.07
45 | A16U C18A G27U G35C G40C | 0.02
46 | C10A G27U G29C G33A G40U | 0.03
47 | C3A G36A C42A | 0.41
48 | A14G G29U U38A | 0.51

Row | Variant | self-cleavage
49 | A6G G30U C31A | 0.03
50 | A12C A24U A25U G29C C31G | 0.01
51 | G2A U9C A26C G36U | 0.03
52 | G36C A39U C42A | 0.01
53 | A4U G29A C46A | 0.08
54 | G7U U9C A16C G19U G36U C46A | 0.04
55 | C3U G22U A24U C37G A41U | 0.06
56 | C3U G7C C8A A16G | 0.06
57 | C18G G27U U32A G35A | 0.01
58 | G7A C8U C18U G21U U34A | 0.05
59 | G2C C18A C46U | 0.07
60 | G2C G7U C10U G17C U28A G29C | 0.02
61 | A14G A24C G44A | 0.08
62 | U9A G40A A41C C42U | 0.15
63 | C13G G29A U34G | 0.07
64 | C3A A6C G21U | 0.2
65 | G19U G44A C45A | 0.04
66 | C31A U32A U34A G44C C46G | 0.02
67 | A16G U34A G36U A39G A41G | 0.01
68 | C3A U28G A41U C46A | 0.19
69 | G2A A4G C13U A16C C23A G36A | 2.08
70 | C10U C18G A26G | 0.24
71 | G30U G33U G40A | 0.05
72 | C13G U20C A25U | 0.09

Row | Variant | self-cleavage
73 | C10A G22A G27U G30A | 0.02
74 | G17U G22U U28A | 1.09
75 | C10G A12C C13U C31U | 0.04
76 | C18U G19U G22A C23U A24G G44U | 0.03
77 | A11U G19C G21A U38G | 0.02
78 | G7C C13G C15G G36C | 0.11
79 | G33C U43A G44U | 0.07
80 | G7U C8G C13U U34C | 0.08
81 | C3A A11C A14C U20C A41C | 0.03
82 | G1A U20A C37A | 0.05
83 | G7A C10A A16C | 0.01
84 | G7C C8A U9C A16G G27C G30U C31A | 0.07
85 | G5A C8G A11U C42A | 0.02
86 | U9A G21U U38G | 0.17
87 | C3G A12C A24U C42A | 0.01
88 | G19U G30A G40C A41U | 0.06
89 | G1C U34G G44C | 0.02
90 | G5C U34A C42A | 0.01
91 | C15G U20G A39C G40C U43A C46A | 0
92 | G7A G22A A24G G44U | 0.1
93 | G1C C10A A25U G36C U43A | 0
94 | A11U A14U G17C A26U | 0
95 | G1C C10G C15A | 0.01
96 | G1A C18G U38G | 0

Row | Variant | self-cleavage
97 | G22A G30A U32C | 0.06
98 | C3G C8G C46A | 0.03
99 | C23U U28G G33U G35C C42U | 0
100 | G1C G7C G22C U28A | 0
101 | C18A A25G U34A | 0.07
102 | C3G A25U U34A | 0.02
103 | C18U C31A C37U G44U | 0.01
104 | A4U G21U A24G G35C | 0.12
105 | U9G U28A G29U C31A | 0.09
106 | G7A A12C A24C C31A A41C C42G | 0.09
107 | C15A A16U C23G G27A C45G | 0.04
108 | C13U G29A C37G | 0.03
109 | G1U C8A U9G C13U G17A G40U | 0.06
110 | A6C C8U U9G C13U G21A C46U | 0.01
111 | A11U A14G U28G | 0
112 | G2C U20A G30A C46A | 0.15
113 | G5A A11C A16C G21A G33U | 0.02
114 | G30C G33C U43A | 0
115 | U28A G36C A41U U43C G44U | 0.04
116 | C31G U34A U43C | 0.08
117 | C10A A25U G27A | 0
118 | G27C G29U G30C G40U C46A | 0.19
119 | G29U G30A C46G | 1.43
120 | G7C A26G C42A | 0.17

Row | Variant | self-cleavage
121 | G5A A16C C23U G29A U32A | 0.03
122 | G5A A14C G36U | 0.21
123 | C15A C31U C46A | 0.02
124 | A12C G17A C18A A24U U32G | 0.01
125 | G19A G22A C46A | 0.63
126 | C3U C13U A14U U43A | 0.04
127 | C10U A41C C46U | 0.02
128 | G1U U9C U38A A39G | 0
129 | G19C G22C G29A | 0.27
130 | G5A G29A U38C G40U | 0.17
131 | A6G A24U G33C | 0.01
132 | G1U C3G C45U | 0.06
133 | G5A G7A C13A C23A C42G | 0.11
134 | U20C U28A C46A | 0.68
135 | G5C A14U U32A | 0.05
136 | C10A C13A U43G G44C | 0.01
137 | G7U C13U A24C U32A | 0.17
138 | C18U G27U U32G C42A | 0.03
139 | G27A C31G G33C | 0.03
140 | C10A C13A G21U G29U | 0.01
141 | A11G U32A G40A | 0.03
142 | G21U A24C U38C | 0.14
143 | G2U G19U A41C | 0.03
144 | A4G U28C G29U C46A | 0.56

Row | Variant | self-cleavage
145 | G36C C37U A41C | 0.03
146 | A16G U20A C23U A25G | 0.05
147 | C8U C37A A39U | 0.01
148 | C37U A39G G44A C46U | 0.01
149 | A4G A6G C23U G27U G40U | 0.06
150 | C31A U34C G36A G44A | 0.06
151 | A24U G44A C45U | 0.02
152 | G7U C8G A14G C18G | 0.01
153 | G1U A14U G17A C46U | 0.04
154 | C23G U34G A39U C45A | 0.02
155 | C10A A24G G29A | 0.02
156 | C8A C18A G27U U32G | 0.14
157 | C15U G22A A39C | 0.1
158 | G19A U20A G40U | 0.36
159 | A6U A12G C42U U43A | 0
160 | C3G G7A U32A G35U | 0.39
161 | G19C G22C C37U U38A G44C | 0
162 | A25G G27A U34C | 0.04
163 | G7U A11G G22C U32G | 0.02
164 | G1A A6U A16G G22C | 0.07
165 | A4C G17C C31U C42G | 0.01
166 | G2A A6G A14U C46A | 0.01
167 | A14G C37U G40A | 0.04

Source: the RNAGym collection of RNA variant scans (doi:10.7554/elife.90254)
